# The RNAGym collection of RNA variant scans (doi:10.1073/pnas.2313332121)
# This sample is rich in variants without activity.
# B1: TPR 5TU (parent)
# chain: GGAUCUUCUCGAUCUAACAAAAAAGACAAAUCUGCCACAAAGCUUGAGAGCAUCUUCGGAUGCAGAGGCGGCAGCCUUCGGUGGCGCGAUAGCGCCAACGUUCUCAACUAUGACACGCAAAACGCGUGCUCCGUUGAAUGGAGUUUAUCAUG
# Variants of: B1
# Assay: polymerase ribozyme fitness, log enrichment relative to wild type (log ratio); higher = more active; in vitro selection for triplet polymerase activity
# Procedure, shortened: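 The heterodimeric triplet polymerase ribozyme's subunits were each mutagenized into PCR-built libraries and transcribed. Every library was selected once, in triplicate, by annealing with a biotinylated primer, the partner subunit and triplets, incubating frozen at −7 °C, gel-excising extended constructs, capturing on streptavidin beads and running RT-PCR. Input and output libraries were Illumina-sequenced, with genotypes kept only at ≥10 input reads and ≥1 read per output. Fitness, from inverse-variance-weighted replicate averages, is the base-2 logarithm of genotype enrichment over wild-type enrichment.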
row,Variant,polymerase ribozyme fitness (log ratio)
1,GGAUCUUCUCGAUCUAACUAAAAAGACAAAUCUGCCACAAAGCUUGAGAGCAUCUUCGAAUGCAGAGGCGGCAGCCUUCGGUUGCGCGAUAGCGCCAACGUUCUCAACUAUGACACGCAAAACGCGUGCUCCGUUGAAGGGAGUUUAUCAUG [A19U G59A G83U U139G],-1.28
2,GGAUCUUCUCGAUCUAACUAAAAAGACAAAUCUGCCACAAAGCUUGAGAGCAUCUUCGAAUGCAGAGGCGGCAGCCUUCGGUGGCUCGAUCGUGCCAACGUUCUCAACUAUGACACGCAAAACGCGUGCUCCGUUGAAUGGUGGUUAUCAUG [A19U G59A G86U A91C C93U A142U U144G],≤ -4.2
3,GGAUCUUCUCGAUCUAACUAAAAAGACAAAUCUGCCACAAAGCUUGAGAGCAUCUUCGGAUGCAGAAGCGGCAGCCUUCGGUGGCGCGAUAGCGCCAACGUUCUCAACUAUGACACGCAAAACGCGUGCUCCGUUGAAUGGAGUUUAUCAUG [A19U G67A],≤ -4.2
4,GGAUCUUCUCGAUCUAACUAAAAAGACAAAUCUGCCACAAAGCUUGAGAGCAUCUUCGGAUGCAGAGGCGGCACCCUUCGGUGGCGCGAUAGCGCCAACGUUCUCAACUAUGAUACGCAAAACGCGGGCUCCGUUAAAUGGAGUUUAUCAUG [A19U G74C C114U U127G G136A],≤ -4.2
5,GGAUCUUCUCGAUCUAACUAAAAAGACAAAUCUGCCACAAAGCUUGAGAGCAUCUUCGGAUGCAGAGGCGGCAGCCUUCGAUGGCGCGAUAGCGCCAACGUUCUCAACUAUGACACGCAAAACGCGUGCUCCGUUGGAUGGAGUUUACCAUG [A19U G81A A137G U148C],≤ -4.2
6,GGAUCUUCUCGAUCUAACUAAAAAGACAAAUCUGCCACAAAGCUUGAGAGCAUCUUCGGAUGCAGAGGCGGCAGCCUUCGGUAGUGCGAGAGCGCCAACGUUCUCCACUAUGACACGCAAAACGCGUGCUCCGUUGAAUGGAGAUUAUCAUG [A19U G83A C85U U90G A106C U144A],≤ -4.2
7,GGAUCUUCUCGAUCUAACUAAAAAGACAAAUCUGCCACAAAGCUUGAGAGCAUCUUCGGAUGCAGAGGCGGCAGCCUUCGGUGGCACGAUAGCGCCAACGUUCUCAACUAUGACACGCAAAACGCGUGCUCCGUUGAAUGGAGUUUAUCAUG [A19U G86A],-2.04
8,GGAUCUUCUCGAUCUAACUAAAAAGACAAAACUGCCACAAAGCUUGAGAGCAUCUUCGGAUGCAGAGGCGGCAGCCUUCGGUGGCGCGAUAGUGCCAACGUUCUCAAAUAUGACACGCAAAACGCGUGCUCCGUUGAAUGUAGUUUAUCAUG [A19U U31A C93U C108A G141U],≤ -4.2
9,GGAUCUUCUCGAUCUAACUAAAAAGACAAAGCUGCCACAAAGCUUGAGAGCAUCUUCGGAUGCAGAGGCGGCAGCCUUCGGUGGCGCGAUAGCGCCAACGUUCUCAACUAUGACACGCAAAACGCGUGCUCCGUUGAAUGGAGCUUAUCAUG [A19U U31G U144C],-1.49
10,GGAUCUUCUCGAUCUAACUAAAAAGACAAAUCUGCCACAAAGCAUGAGAGCAUCUUCGGAUGCAGAGGCGGCAGCCUUCGGUGGCGCGAUAGCGCCAACGUUCUCAACUAUGACACGCAAAACGCGUGCUCCGUUGAAUGGAGUUUAUCAUG [A19U U44A],≤ -4.2
11,GGAUCUUCUCGAUCUAACUAAAAAGACAAAUCUGCCACAAAGCAUGAGAGCAUCUUCGGAUGCAGAGGCGGCAGCCUUCGGUGGCGCGAUAGCGUCAAGGUUCUCAACUAUGACACGCAAAACGCGUGCUCCGUUGAAUGGAGUUUAUCAUG [A19U U44A C95U C99G],≤ -4.2
12,GGAUCUUCUCGAUCUAACUAAAAAGACAAAUCUGCCACAAAGCGUGAGAGCAUCUUCGGAUGCAGAGGCGGCAGCCUUCGGUGGCGCGAUAGAGCCAACGUUCUCAACUAUGACACGCAAAACGCGUGCUCCGUUGAAUGGAGUUUAUCAUG [A19U U44G C93A],≤ -4.2
13,GGAUCUUCUCGAUCUAACUAAAAAGACAAAUCUGCCACAAAGCUUGAGAGCAGCUUCGGAUGCAGAGGCGGCAGCCUUCGGUGGCGCGAUAGGGCCAACGUUCUCAACUAUGACACGCAAAACGCGUGCUCCGUUGAAUGGAGUUUAUCAUG [A19U U53G C93G],≤ -4.2
14,GGAUCUUCUCGAUCUAACUAAAAAGACAAAUCUGCCACAAAGCUUGAGAGCAUCAUCGUAUGCAGAGGCGGCAGCCUUCGGUGGCGCGAUAGCGCCAACGUUCUCAACUAUGACACGCAAAACGCGUGCUCCGUUGAAUGGAGUUUAUCAUG [A19U U55A G59U],0.528
15,GGAUCUUCUCGAUCUAACUAAAAAGACAAAUCUGCCACAAAGCUUGAGAGCAUCGUCGGAUGGAGAGUUGGCAGCCUUCGGUGGCGCGAUAGCGCCAAAGUUCUCAACUAUGACACGCAAAACGCGUGCUCCGUUGACUGGAGUUUAUCAUG [A19U U55G C63G G68U C69U C99A A138C],≤ -4.2
16,GGAUCUUCUCGAUCUAACACGACAGACUAAUCUGCCAAAAAGCUUGAGAGCAUCUUCGGAUGCAGAGGCGGCAGCCUUCGGUGGCGCGAUAGCGCCAACGUUCUCAACUAUGACACGCAAAACGCGUGCUCCGUUGAAUGGAGUUUAUCAUG [A20C A21G A23C A28U C38A],≤ -4.2
17,GGAUCUUCUCGAUCUAACACUAAAGACAAAUCUGCCACAAAGCUUGAGAGAAUCUUCGGAUGCAGAGGCGGCAGCCUUCGGUGGCUCGAUAGCGACAACGUUCUCAACUAUGACACGCAAAACGCGUGCUCCCUUGAAUGGAGUUUAUCAUG [A20C A21U C51A G86U C95A G133C],≤ -4.2
18,GGAUCUUCUCGAUCUAACACAUAAGACAAAUCUGCCACAAAGCUUGAGAGUAUCUUCGGAUGCAGAGGCGGCAGCCUUCGGUGGCGCGAUAGCGCCAACGUUCUCAACUAUGACACGCAAAACGCGUGCUCCGUUGAAUGGAGUUUAUCAUG [A20C A22U C51U],-0.386
19,GGAUCUUCUCGAUCUAACACAUAAGACAAAUCUGCCACAAAGCUUGAGAGCAUCUUCAGAUGCAGAGGCGGCAGCCCUCGGUGGCGCGAUAGCGCGAACGUUCUCAACUAUGACACGCAAAACGCGUGCUCCGUUGAAUGGAGUUUAUCAUG [A20C A22U G58A U77C C96G],≤ -4.2
